Assay results from US3954730A, “6-(Substituted-cycloalkylcarboxamide) penicillanic acids” (Bayer Aktiengesellschaft, priority 1973, dated 1976).
Counter-ions that a name gives are not always drawn.

Tests used:
E.coli C 165 = assay: Animal experiment with white mice infected intraperitoneally: ED50 after 24 hours; details: subcutaneous, 1 × administration 30 minutes after infection
Description: (§1) The white, mice of strain CF1 were infected intraperitoneally with the particular species of bacteria indicated.
(§2) Animal experiment with white mice:
(§3) Determination of the ED50 after 24 hours.
(§4) Treatment: l administration 30 minutes after infection
(§5) The ED50 is the dose at which 50% of the infected animals still survive after 24 hours.

[1] = system: Staphylococcus aureus 133; assay: as above
Description: as §1, §2, §3, §4, §5

## CC1(C)S[C@@H]2[C@H](NC(=O)C3(C)CC3(Cl)Cl)C(=O)N2[C@H]1C(=O)O (stereo partly drawn) [Example 1, sodium salt of 6-(2,2-dichloro-1-methyl-cyclopropylcarboxamido)-penicillanic acid]
E.coli C 165
  ED50 (dose at which 50% of the infected animals still survive after 24 hours): 200,000 units per kg
[1]; oral, 1 administration 30 minutes after infection
  ED50 (dose at which 50% of the infected animals still survive after 24 hours): 10,000 units per kg
[1]; subcutaneous, 1 × administration 30 minutes after infection
  ED50 (dose at which 50% of the infected animals still survive after 24 hours): 5,000 units per kg
